Consider 52 compounds from paper PMC12040169 (PLOS Biology, 2025).

The list shows a part of the results.

The test relates to T1, C. trachomatis L2/434/Bu expressing GFP (CTL2-GFP).
T1 construct: L2/434/Bu GFP intracellular growth in HeLa cells
Also on record: species or system HeLa; C. trachomatis total inclusion area by high-content imaging, normalised to DMSO. To be noted: total inclusion area; 28.5 h, 10 µM; inhibitor. The method in brief:
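Post-fluorescence-read fixation, DNA staining with Hoechst and high-content imaging; GFP inclusion area and number per well, and nuclei counts, used as proxies for bacterial growth and host viability.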
Turning to `CC(/C=C/c1ccc(N(C)C)cc1)=N\NC(=N)SC1CC(=O)N(c2ccc(C(=O)O)cc2)C1=O` (stereo not shown) [CBK262460], the “% of control remaining” value worked out at 88.0901. Turning to `O=C(c1cnccn1)N1C[C@@H]2OCC(=O)N(CC3CC3)[C@@H]2C1` [CBK289681], the “% of control remaining” value stood at 112.204. Then `O=C(CSCc1ccc([N+](=O)[O-])cc1)Nc1ccc2c(c1)OCO2` [CBK264031], with 100.003; and `O=C(Cc1ccc([N+](=O)[O-])cc1)N/N=C/c1ccc(O)cc1` [CBK262152], with 98.5985; and `Nc1ncc(-c2ccc3c(c2)OCO3)nc1N1CCC(C(=O)O)CC1` [CBK064074], with 124.023. Then `CC(C(=O)N1CCOCC1)N(c1cc(Cl)ccc1Cl)S(C)(=O)=O` (stereo not shown) [CBK270270], with 120.188; and `Cc1ccc(-c2nnc(CNC(=O)c3cccc(F)c3F)o2)s1` [CBK284641], with 102.2.

Turning to `CC(NC(=O)CCc1cccnc1)c1nc(-c2ccncc2)cs1` (stereo not shown) [CBK306243], the “% of control remaining” value is on record as 85.7664. Turning to `Cn1nccc1NS(=O)(=O)c1cccc2cccnc12` [CBK062069], the “% of control remaining” value is 97.8631.

In the case of `CCN(Cc1ccccc1)C(=O)Nc1ccc(C)cc1` [CBK155248], the “% of control remaining” value stood at 77.1381. For the compound `Cc1cc(C)n(CC2(CNC(=O)C(c3ccccc3F)N(C)C)CC2)n1` (stereo not shown) [CBK306920], the “% of control remaining” value is recorded as 91.2712.

In the case of `O=C(NCCN1CCCCC1)c1cccc(Oc2ccccc2)c1` [CBK270335], the “% of control remaining” value is reported as 52.0034. Turning to `O=C(c1ccccc1Cl)N1N=C(c2cccnc2)CC1c1ccccc1O` (stereo not shown) [CBK269182], the “% of control remaining” value was 129.796.

For the compound `Cc1cc(C(=O)CSc2nnnn2-c2ccc(O)cc2)c(C)n1Cc1ccc(F)cc1` [CBK297081], the “% of control remaining” value was 101.257. Regarding `O=C(O)CCCn1cc(NC(=O)c2ccc(Br)o2)cn1` [CBK270042], the “% of control remaining” value worked out at 96.4644. Next, `NCC1OCCc2ccccc21` (stereo not shown) [CBK027717]: 100.575; `COc1ccc(N2C(=O)CSC23C(=O)Nc2ccc(Br)cc23)cc1` (stereo not shown) [CBK093454]: 88.3369. Next, `c1ccc(CCN2CCC(Oc3cncc(OCCN4CCOCC4)n3)C2)cc1` (stereo not shown) [CBK084497]: 112.094; `COCCn1cnnc1CN(C)C(=O)NCc1cc2ccccc2s1` [CBK306911]: 60.7368.

On to `COC(C)(C(=O)Nc1ccc(Cl)nc1)c1cccc2ccccc12` (stereo not shown) [CBK091350], for which the “% of control remaining” value worked out at 92.5421. Then `CCCCC(Sc1nc(N)cc(Cl)n1)c1cc(C)ccn1` (stereo not shown) [CBK016827], with 61.0217; and `Cc1c(Cl)cccc1S(=O)(=O)Nc1c(C(=O)O)[nH]c2ccccc12` [CBK049889], with 88.452; and `N#Cc1ccc(NC(=O)NCCc2cccs2)cc1` [CBK043736], with 90.0918. Next, `Nc1nc2nn([C@H]3C[C@@H](O)[C@@H](CO)O3)cc2c(=O)[nH]1` [CBK201218]: 73.4487. Turning to `O=C(c1cc2c(F)cccc2[nH]1)N(CCO)CCc1ccncc1` [CBK281644], the “% of control remaining” value came out at 99.7046. Next, `Cc1c(C(=O)N2CCC(CN)C2)nnn1-c1ccc2ncccc2c1` (stereo not shown) [CBK304734]: 81.8079; `c1ccc(COc2ccc(N3CCNCC3)cc2)cc1` [CBK012776C]: 96.7843; `Clc1cccc(-c2cncc(N3CCN(Cc4ccccn4)CC3)n2)c1` [CBK037282]: 117.688.

For `COc1ccc(NC(=O)c2cc(-c3cccnc3)nc3c(C)c(C)ccc23)c(OC)c1` [CBK267746], the “% of control remaining” value was 118.301. Next, `O=C(NC1CC1)c1cc(C2CCCN(Cc3cccc(F)c3)C2)no1` (stereo not shown) [CBK284588]: 53.1293; `CC(=O)N1CCC[C@H]2NC(=O)CNC(=O)C3(C/C=C/C[C@H]21)CCN(Cc1ccccc1O)CC3` [CBK292054]: 87.0316. Then `O=C(c1ccc(F)cc1)[C@H]1CCCN(C(=O)C2CC2)C1` [CBK284326], with 68.0119; and `CN1C(=O)C(CCNc2ccccc2)S/C1=N/C1CC2C=CC1C2` (stereo not shown) [CBK073812], with 62.1966; and `CC(CCCc1ccccc1)NC(=O)c1cc2c([nH]c1=O)CCC2` (stereo not shown) [CBK281528], with 110.263.

With `CCn1cc(CCC(=O)NC2CCCOC2)c2ccccc21` (stereo not shown) [CBK283256], the “% of control remaining” value came to 113.682. Next, `Cc1ccc(CNC(=O)Cc2csc(N3CCCC3=O)n2)n1C` [CBK305642]: 97.1723; `Nc1nonc1NC(=O)N/N=C/c1ccc(C(F)(F)F)cc1` [CBK261813]: 80.1021; `CCOC(=O)c1ccccc1NS(=O)(=O)c1ccc(C)c([N+](=O)[O-])c1` [CBK045451]: 100.225. Turning to `COc1cc(CNC23CC4CC(CC(C4)C2)C3)c(Cl)cc1OCC(=O)O` [CBK269567], the “% of control remaining” value is recorded as 93.063.

Turning to `CN1CCC(CN(C)Cc2ccc3cccc(Cl)c3n2)C1` (stereo not shown) [CBK282615], the “% of control remaining” value was found to be 101.357.

For `CC(=O)Nc1cc(S(N)(=O)=O)c(F)cc1C` [CBK034356], the “% of control remaining” value is 13.6434. Next, `CCOc1ccc(/N=C2/SC(C(=O)O)CC(=O)N2Cc2ccc3c(c2)OCO3)cc1` (stereo not shown) [CBK263296]: 97.4357; `Cc1cnn(C2(C(=O)O)CCN(C(=O)c3cccc(C#N)c3)CC2)c1` [CBK307058]: 75.0268. Consider `Fc1ccc2c(-c3ccccc3)noc2c1` [CBK025975], for which the “% of control remaining” value worked out at 63.1339.

Take `O=C1NCC2(C/C=C/CCOc3ccccc31)CCN(C(=O)CCN1CCCC1=O)CC2` [CBK292016]: the “% of control remaining” value is on record as 120.593. In the case of `O=C(NC1CCN(Cc2cc(F)cc(F)c2)CC1)c1cn2ccsc2n1` [CBK306970], the “% of control remaining” value was 89.4589. Consider `CC(C(=O)Nc1cccc2[nH]ccc12)c1ccc(Cl)cc1` (stereo not shown) [CBK159647], for which the “% of control remaining” value is recorded as 74.5492. Next, `N#CCCN(C(=O)Nc1ccc(Cl)cc1)C1CCCCC1` [CBK156365]: 90.1714. Then `COc1ccc(S(=O)(=O)N2CCN(C(=O)COc3ccc4ccccc4c3)CC2)cc1` [CBK263371], with 91.892; and `CCn1cncc1CN1CC2CCCC(O)(c3ccc(C)cc3)C2C1` (stereo not shown) [CBK284374], with 95.2731; and `O=C(c1cccc2ncccc12)N1CC[C@@H](c2ccccc2)[C@H](O)C1` [CBK283716], with 66.5906.

Regarding `COc1ccc(NC(=O)C2CCCN2c2nc(O)cc(C(F)(F)F)n2)c(OC)c1` (stereo not shown) [CBK003951], the “% of control remaining” value worked out at 98.7265.
